Assay results taken from the supplement of paper PMC11417369.
± gives the standard deviation of the averaged measurements. This is one part of the list.

Test system: PfAP2-LT AP2 domain (GST-tagged)
Experiment: gcPBM binding intensity (ln(normalized median fluorescence intensity)); higher = stronger DNA binding
Method in brief: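 Plasmodium falciparum DNA-binding domains carrying a GST tag were expressed in E. coli and applied for 1 h, at about 25 μg on average, to an Agilent 4 × 180k array. The array held primer-extended double-stranded 36-bp intergenic genomic probes together with negative controls, and binding took place in 1× PBS with 1% milk, 0.2 mg/ml BSA, 0.5% salmon testes DNA and 0.03% Triton X-100. An Alexa488 anti-GST antibody detected bound protein, and the array was scanned at 488 nm. Binding intensity is taken as the highest Masliner-normalised natural-log median intensity across replicate spots of either probe orientation.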

Question: How did the “gcPBM binding intensity (ln)” value turn out when “TGTATAAACTTTACGTGTACATGAATAATCTATAAT [XGTACX_site3801]” was run?
Answer: Its value is 8.65 ± 0.38.

Question: For “TTGTACAAAAATAATGCACACTATATCAAGTTTTTT [CACACA_site5898]”, which “gcPBM binding intensity (ln)” value is on record?
Answer: The value was 8.82 ± 0.32.

Question: “AAAATGGAACTAGGAATAATATAAGAAGATAAAAGG [XGTACX_negctrl_site347]” was tested. Which “gcPBM binding intensity (ln)” value did it give?
Answer: Its value is 8.79 ± 0.48.

Question: “TAATCATTTTAGCTTACACACAAAATTTTGTTATAA [CACACA_site2939]” was tested. Which “gcPBM binding intensity (ln)” value did it give?
Answer: The value was 8.9 ± 0.41.

Question: Which “gcPBM binding intensity (ln)” value does the source give for AAAATAATTTTATAAGTGCAAAATAGCTTATTTATA here?
Answer: The value was 8.46 ± 0.49.

Question: How did the “gcPBM binding intensity (ln)” value turn out when “TATATATGTGTATAGAGTACACGTTTTTTTTAATAT [XGTACX_site3128]” was run?
Answer: Its value is 8.68 ± 0.46.

Question: “AAAAACCTGAACTGTGCATGTCATACTTTTACTTTT [TGCATGCA_site73]” was tested. Which “gcPBM binding intensity (ln)” value did it give?
Answer: The value was 8.99 ± 0.4.

Question: With TATACGTATTACAGAGTGCAATAAACAGTATATATT as the sequence, how does the “gcPBM binding intensity (ln)” value read?
Answer: Its value is 9.04 ± 0.33.

Question: “TATAAGAATGACAAGTGTACATATCAAATATATTAG [XGTACX_site7113]” was tested. Which “gcPBM binding intensity (ln)” value did it give?
Answer: Its value is 8.83 ± 0.4.

Question: How did the “gcPBM binding intensity (ln)” value turn out when “TATTTTTTATATTTATTTATTTAAAGGAGCTTTTCT [GTGCAC_negctrl_site293]” was run?
Answer: Its value is 8.34 ± 0.54.

Question: How did the “gcPBM binding intensity (ln)” value turn out when “TATACTAAAAAATACACATGCACATACAATATATAT [TGCATGCA_site1016]” was run?
Answer: The value was 9.05 ± 0.4.

Question: With “AATATAAATTAATTTACACACTAAAAAATATTTATA [CACACA_site7728]” as the sequence, how does the “gcPBM binding intensity (ln)” value read?
Answer: The value was 8.59 ± 0.55.

Question: Which “gcPBM binding intensity (ln)” value does the source give for “ACATACTTTAATATATGTACATAAGAAAAAAAAAAA [XGTACX_site2991]” here?
Answer: Its value is 8.81 ± 0.55.

Question: How did the “gcPBM binding intensity (ln)” value turn out when “TGTACATATATATATATAATAATAGTTATGTTTATT [CACACA_negctrl_site1474]” was run?
Answer: Its value is 8.85 ± 0.32.

Question: How did the “gcPBM binding intensity (ln)” value turn out when “TTTTTTTATAGCTAAACACACATAAGAATATATGTT [CACACA_site1099]” was run?
Answer: The value was 8.76 ± 0.4.

Question: For “ATTATTACACAACGTTGTACATTTCAATATTTTTAT [XGTACX_site5096]”, which “gcPBM binding intensity (ln)” value is on record?
Answer: Its value is 9.12 ± 0.49.

Question: With “AAAATAATATATAATTGTACTTTTTTTTTATATATA [XGTACX_site6093]” as the sequence, how does the “gcPBM binding intensity (ln)” value read?
Answer: Its value is 8.48 ± 0.38.

Question: Which “gcPBM binding intensity (ln)” value does the source give for “TCCTCTTCAATATATATATATTATAAATAAATAAAT [CACACA_negctrl_site1756]” here?
Answer: The value was 8.32 ± 0.29.

Question: “TTTCTTTTTTTTTAATGTACTTTTTTTATAAAAGGT [XGTACX_site5688]” was tested. Which “gcPBM binding intensity (ln)” value did it give?
Answer: Its value is 8.28 ± 0.52.

Question: “TTTTTTCTTAAAATTTGTACATAGTGCAATTTTTTT [XGTACX_site5509]” was tested. Which “gcPBM binding intensity (ln)” value did it give?
Answer: The value was 8.41 ± 0.59.

Question: With “TTTGAATTTTTTAACACACACATGTGTGGATATATA [CACACA_site6872]” as the sequence, how does the “gcPBM binding intensity (ln)” value read?
Answer: Its value is 9.17 ± 0.35.

Question: Which “gcPBM binding intensity (ln)” value does the source give for “TATTAACACTTTATAGAAACAAAAAAATAAGCAAAA [XGTACX_negctrl_site295]” here?
Answer: The value was 8.51 ± 0.52.

Question: Which “gcPBM binding intensity (ln)” value does the source give for “AAGTTGTATATTGATTGTACTTGTTTAGGGTTATAG [XGTACX_site2953]” here?
Answer: The value was 8.87 ± 0.45.

Question: Which “gcPBM binding intensity (ln)” value does the source give for “ATATATATAATAAACACACACATATACATATATGTA [CACACA_site3462]” here?
Answer: Its value is 9.3 ± 0.31.

Question: For “TATATATATATAATGTGTACACAAATATATATTATA [XGTACX_site8786]”, which “gcPBM binding intensity (ln)” value is on record?
Answer: The value was 8.8 ± 0.37.
